Experimental findings from patent US6436654 (PHARMACIA AND UPJOHN, dated 2002) are described below.

This assay addresses GAL4/HIF 71-826 (human, UniProt P04386 1-147 (Saccharomyces cerevisiae entry)). Nature of the assay: cell-based or functional assay.

B1: SRC-1 (full-length) (other, human, UniProt Q15788 1-1441, looked up)
chain: MSGLGDSSSDPANPDSHKRKGSPCDTLASSTEKRRREQENKYLEELAELLSANISDIDSLSVKPDKCKILKKTVDQIQLMKRMEQEKSTTDDDVQKSDISSSSQGVIEKESLGPLLLEALDGFFFVVNCEGRIVFVSENVTSYLGYNQEELMNTSVYSILHVGDHAEFVKNLLPKSLVNGVPWPQEATRRNSHTFNCRMLIHPPDEPGTENQEACQRYEVMQCFTVSQPKSIQEDGEDFQSCLICIARRLPRPPAITGVESFMTKQDTTGKIISIDTSSLRAAGRTGWEDLVRKCIYAFFQPQGREPSYARQLFQEVMTRGTASSPSYRFILNDGTMLSAHTKCKLCYPQSPDMQPFIMGIHIIDREHSGLSPQDDTNSGMSIPRVNPSVNPSISPAHGVARSSTLPPSNSNMVSTRINRQQSSDLHSSSHSNSSNSQGSFGCSPGSQIVANVALNQGQASSQSSNPSLNLNNSPMEGTGISLAQFMSPRRQVTSGLATRPRMPNNSFPPNISTLSSPVGMTSSACNNNNRSYSNIPVTSLQGMNEGPNNSVGFSASSPVLRQMSSQNSPSRLNIQPAKAESKDNKEIASILNEMIQSDNSSSDGKPLDSGLLHNNDRLSDGDSKYSQTSHKLVQLLTTTAEQQLRHADIDTSCKDVLSCTGTSNSASANSSGGSCPSSHSSLTERHKILHRLLQEGSPSDITTLSVEPDKKDSASTSVSVTGQVQGNSSIKLELDASKKKESKDHQLLRYLLDKDEKDLRSTPNLSLDDVKVKVEKKEQMDPCNTNPTPMTKPTPEEIKLEAQSQFTADLDQFDQLLPTLEKAAQLPGLCETDRMDGAVTSVTIKSEILPASLQSATARPTSRLNRLPELELEAIDNQFGQPGTGDQIPWTNNTVTAINQSKSEDQCISSQLDELLCPPTTVEGRNDEKALLEQLVSFLSGKDETELAELDRALGIDKLVQGGGLDVLSERFPPQQATPPLIMEERPNLYSQPYSSPSPTANLPSPFQGMVRQKPSLGTMPVQVTPPRGAFSPGMGMQPRQTLNRPPAAPNQLRLQLQQRLQGQQQLIHQNRQAILNQFAATAPVGINMRSGMQQQITPQPPLNAQMLAQRQRELYSQQHRQRQLIQQQRAMLMRQQSFGNNLPPSSGLPVQMGNPRLPQGAPQQFPYPPNYGTNPGTPPASTSPFSQLAANPEASLANRNSMVSRGMTGNIGGQFGTGINPQMQQNVFQYPGAGMVPQGEANFAPSLSPGSSMVPMPIPPPQSSLLQQTPPASGYQSPDMKAWQQGAIGNNNVFSQAVQNQPTPAQPGVYNNMSITVSMAGGNTNVQNMNPMMAQMQMSSLQMPGMNTVCPEQINDPALRHTGLYCNQLSSTDLLKTEADGTQQVQQVQVFADVQCTVNLVGGDPYLNQPGPLGTQKPTSGPQTPQAQQKSLLQQLLTE
modifications: [35S]methionine-labeled (in vitro translated) in the GST precipitation assay
As for B1, the “GAL4-responsive luciferase activity in COS7 cells, hypoxia, against hypoxia without exogenous coactivators” value is 34 fold.
